The values below come from patent US11618753B2 (priority 2018, dated 2023).

Structures can show the parent of a compound that is named as a salt.

The subject of this test is MLKL phosphorylation, HT29-L23 human colorectal adenocarcinoma cells. Description: cells. Particulars: read-out: pMLKL HCS Cell Assay (IC50, uM).
Regarding `Nc1ncnn2c(-c3cccc(C(=O)NCc4ccccc4Oc4ccccc4)c3)c(F)cc12` [Example 4, 3-{4-amino-6-fluoropyrrolo[2,1-f][1,2,4]triazin-7-yl}-N-[(2-phenoxyphenyl)methyl]benzamide], the IC50 (commonly the midpoint of a concentration-inhibition curve) amounted to 0.412 µM.
For `COc1ncc(-c2cc(C(F)(F)F)c3c(N)ncnn23)cc1C(=O)N[C@@H]1CN(CC(O)CC(F)(F)F)C[C@@H]1F` (stereo partly drawn) [Example 1821, 5-(4-amino-5-(trifluoromethyl)pyrrolo[2,1-f][1,2,4]triazin-7-yl)-N-((3R,4S)-4-fluoro-1-(4,4,4-trifluoro-2-hydroxybutyl)pyrrolidin-3-yl)-2-methoxynicotinamide], the IC50 was 0.014 µM.
Turning to `Cc1ncc(-c2cc(C(F)(F)F)c3c(N)ncnn23)cc1C(=O)N[C@@H]1CN(C(=O)[C@H](O)C(F)(F)F)C[C@@H]1F` [Example 370, 5-[4-amino-5-(trifluoromethyl)pyrrolo [2,1-f][1,2,4]triazin-7-yl]-N-[(3R,4S)-4-fluoro-1-[(2S)-3,3,3-trifluoro-2-hydroxy-propanoyl]pyrrolidin-3-yl]-2-methyl-pyridine-3-carboxamide], the IC50 was found to be 0.13 µM.
For `[2H]C([2H])([2H])Oc1ncc(-c2cc(C(F)(F)F)c3c(N)ncnn23)cc1C(=O)NC1CN(C(=O)C2CC2(F)F)C[C@@H]1F` (stereo partly drawn) [Example 377, 5-[4-amino-5-(trifluoromethyl)pyrrolo [2,1-f][1,2,4]triazin-7-yl]-N-[(3R,4S)-1-(2,2-difluorocyclopropanecarbonyl)-4-fluoropyrrolidin-3-yl]-2-(Deutro) methoxypyridine-3-carboxamide], the IC50 came to 0.0055 µM.
For the molecule `COc1ncc(-c2cc(C(F)(F)F)c3c(N)ncnn23)cc1C(=O)NC1CN(CCC2CC2(F)F)CC1F` (racemic) [Example 188, 5-[4-amino-5-(trifluoromethyl)pyrrolo[2,1-f][1,2,4]triazin-7-yl]-N-{1-[2-(2,2-difluorocyclopropyl)ethyl]-4-fluoropyrrolidin-3-yl}-2-methoxypyridine-3-carboxamide], the half-inhibitory concentration (IC50) was found to be 0.025 µM.
Take `COc1ncc(-c2cc(CN3CCC(F)(F)CC3)c3c(N)ncnn23)cc1C(=O)N[C@@H]1CN(C(=O)C(C)C(F)(F)F)C[C@@H]1F` (stereo partly drawn) [Example 1266, 5-{4-amino-5-[(4,4-difluoropiperidin-1-yl)methyl]pyrrolo[2,1-f][1,2,4]triazin-7-yl}-N-[(3R,4S)-4-fluoro-1-(3,3,3-trifluoro-2-methylpropanoyl)pyrrolidin-3-yl]-2-methoxypyridine-3-carboxamide]: the IC50 was determined as 0.00087 µM.
To `COc1ncc(-c2cc(CN3CCC(F)(F)CC3)c3c(N)ncnn23)cc1C(=O)N[C@@H]1CN(C(=O)c2cc(F)ccc2F)C[C@@H]1F` [Example 1241, 5-{4-amino-5-[(4,4-difluoropiperidin-1-yl)methyl]pyrrolo[2,1-f][1,2,4]triazin-7-yl}-N-[(3R,4S)-1-(2,5-difluorobenzoyl)-4-fluoropyrrolidin-3-yl]-2-methoxypyridine-3-carboxamide] belongs 0.00061 µM.
Regarding `Cc1ncc(-c2cc(C(F)(F)F)c3c(N)ncnn23)cc1C(=O)N[C@@H]1CN(C(=O)CC(C(F)(F)F)C(F)(F)F)C[C@@H]1F` [Example 1233, 5-[4-amino-5-(trifluoromethyl)pyrrolo[2,1-f][1,2,4]triazin-7-yl]-N-[(3R,4S)-4-fluoro-1-[4,4,4-trifluoro-3-(trifluoromethyl)butanoyl]pyrrolidin-3-yl]-2-methylpyridine-3-carboxamide], the IC50 came to 0.0024 µM.
With `COc1ncc(-c2cc(C(F)(F)F)c3c(N)ncnn23)cc1C(=O)Nc1ncc(C(=O)NCc2cc(OC(F)(F)F)ccc2F)s1` [Example 1305, 5-[4-amino-5-(trifluoromethyl)pyrrolo-[2,1-f][1,2,4]triazin-7-yl]-N-[5-({[2-fluoro-5-(trifluoromethoxy)phenyl]-methyl}carbamoyl)-1,3-thiazol-2-yl]-2-methoxypyridine-3-carboxamide], the concentration for half-maximal inhibition (IC50) was found to be 0.48 µM.
Take `COc1ncc(-c2cc(Cn3cnc4ccccc43)c3c(N)ncnn23)cc1C(=O)N[C@@H]1CN(C(=O)C2CC(F)(F)C2)C[C@@H]1F` [Example 1708, 5-(5-((1H-benzo[d]imidazol-1-yl)methyl)-4-aminopyrrolo[2,1-f][1,2,4]triazin-7-yl)-N-((3R,4S)-1-(3,3-difluorocyclobutane-1-carbonyl)-4-fluoropyrrolidin-3-yl)-2-methoxynicotinamide]: the IC50 was determined as 0.063 µM.
To `COc1ncc(-c2cc(CN3CCC(F)(F)CC3)c3c(N)ncnn23)cc1C(=O)N[C@@H]1CN(C(=O)c2ccncc2F)C[C@@H]1F` [Example 1250, 5-{4-amino-5-[(4,4-difluoropiperidin-1-yl)methyl]pyrrolo[2,1-f][1,2,4]triazin-7-yl}-N-[(3R,4S)-4-fluoro-1-(3-fluoropyridine-4-carbonyl)pyrrolidin-3-yl]-2-methoxypyridine-3-carboxamide] belongs 0.0015 µM.
Take `Nc1ncnn2c(-c3ccc(Cl)c(C(=O)N[C@@H]4CN(C(=O)c5ccc(F)cc5)C[C@@H]4F)c3)cc(C(F)(F)F)c12` [Example 952, 5-[4-amino-5-(trifluoromethyl)pyrrolo[2,1-f][1,2,4]triazin-7-yl]-2-chloro-N-[(3R,4S)-4-fluoro-1-(4-fluorobenzoyl)pyrrolidin-3-yl]benzamide]: the IC50 amounted to 0.024 µM.
For the molecule `C[C@H]1CN(C(=O)C2CCC(F)(F)C2)C[C@H]1NC(=O)c1cc(-c2cc(C(F)(F)F)c3c(N)ncnn23)cnc1C(F)(F)F` (stereo partly drawn) [Example 23, 5-[4-amino-5-(trifluoromethyl)pyrrolo[2,1-f][1,2,4]triazin-7-yl]-N-[(3S,4S)-1-(3,3-difluorocyclopentanecarbonyl)-4-methylpyrrolidin-3-yl]-2-(trifluoromethyl)pyridine-3-carboxamide], the half-maximal inhibitory concentration (IC50) turned out to be 0.06 µM.
On to `Nc1ncnn2c(-c3ccc(OC(F)(F)F)c(C(=O)N[C@@H]4CN(C(=O)CC(O)(C(F)(F)F)C(F)(F)F)C[C@@H]4F)c3)cc(C(F)(F)F)c12` [Example 1060, 5-[4-amino-5-(trifluoromethyl)pyrrolo[2,1-f][1,2,4]triazin-7-yl]-N-[(3R,4S)-4-fluoro-1-[4,4,4-trifluoro-3-hydroxy-3-(trifluoromethyl)butanoyl]pyrrolidin-3-yl]-2-(trifluoromethoxy)benzamide], for which the IC50 worked out at 0.08 µM.
Consider `Cc1ccc(-c2cc(C(F)(F)F)c3c(N)ncnn23)c(F)c1C(=O)N[C@@H]1CN(C(=O)C(C)(C)O)C[C@@H]1F` [Example 757, 3-[4-amino-5-(trifluoromethyl)pyrrolo[2,1-f][1,2,4]triazin-7-yl]-2-fluoro-N-[(3R,4S)-4-fluoro-1-(2-hydroxy-2-methylpropanoyl)pyrrolidin-3-yl]-6-methylbenzamide], for which the IC50 amounted to 0.234 µM.
To `COc1ncc(-c2c(F)cc3c(N)ncnn23)cc1C(=O)NCCC(C)c1ccccc1` (centres unmarked) [Example 61, 5-(4-amino-6-fluoropyrrolo[2,1-f][1,2,4]triazin-7-yl)-2-methoxy-N-(3-phenylbutyl)nicotinamide] belongs 0.03 µM; to `CCC(O)(C(=O)N1C[C@H](F)[C@H](NC(=O)c2cc(-c3cc(CN4CCC(F)(F)CC4)c4c(N)ncnn34)c(F)cc2OC)C1)C(F)(F)F` (stereo partly drawn) [Example 1637, 5-{4-amino-5-[(4,4-difluoropiperidin-1-yl)methyl]pyrrolo[2,1-f][1,2,4]triazin-7-yl}-4-fluoro-N-[(3R,4S)-4-fluoro-1-[2-hydroxy-2-(trifluoromethyl)butanoyl]pyrrolidin-3-yl]-2-methoxybenzamide], 0.0012 µM; to `COc1ncc(-c2cc(C(F)(F)F)c3c(N)ncnn23)cc1C(=O)N[C@@H]1CN(C2CC(C)c3ccccc32)C[C@@H]1F` (stereo partly drawn) [Example 1353, 5-(4-Amino-5-(trifluoromethyl)pyrrolo[2,1-f][1,2,4]triazin-7-yl)-N-((3R,4S)-4-fluoro-1-(3-methyl-2,3-dihydro-1H-inden-1-yl)pyrrolidin-3-yl)-2-methoxynicotinamide], 0.288 µM.
For the molecule `CC(C)(F)C(=O)N1C[C@H](F)[C@H](NC(=O)c2cc(-c3cc(C(F)(F)F)c4c(N)ncnn34)ccc2OC(F)(F)F)C1` [Example 1056, 5-[4-amino-5-(trifluoromethyl)pyrrolo[2,1-f][1,2,4]triazin-7-yl]-N-[(3R,4S)-4-fluoro-1-(2-fluoro-2-methylpropanoyl)pyrrolidin-3-yl]-2-(trifluoromethoxy)benzamide], the IC50 is 0.295 µM.
For `COc1ncc(-c2cc(CN3CCCC3)c3c(N)ncnn23)cc1C(=O)N[C@@H]1CN(C(=O)[C@@](C)(O)C(F)(F)F)C[C@@H]1F` [Example 1588, 5-{4-amino-5-[(pyrrolidin-1-yl)methyl]pyrrolo[2,1-f][1,2,4]triazin-7-yl}-N-[(3R,4S)-4-fluoro-1-[(2R)-3,3,3-trifluoro-2-hydroxy-2-methylpropanoyl]pyrrolidin-3-yl]-2-methoxypyridine-3-carboxamide], the half-maximal inhibitory concentration (IC50) turned out to be 0.0011 µM.
For the molecule `COc1ccc(-c2cc(C(F)(F)F)c3c(N)ncnn23)cc1C(=O)N[C@@H]1CN(C(=O)CC(O)(C(F)(F)F)C(F)(F)F)C[C@@H]1F` [Example 1126, 5-[4-amino-5-(trifluoromethyl)pyrrolo[2,1-f][1,2,4]triazin-7-yl]-N-[(3R,4S)-4-fluoro-1-[4,4,4-trifluoro-3-hydroxy-3-(trifluoromethyl)butanoyl]pyrrolidin-3-yl]-2-methoxybenzamide], the IC50 worked out at 0.0018 µM.
As for `COc1ncc(-c2cc(C(F)(F)F)c3c(N)ncnn23)cc1C(=O)N[C@@H]1CN(C(=O)C(C)(C)O)C[C@@H]1F` [Example 339, 5-[4-amino-5-(trifluoromethyl)pyrrolo[2,1-f][1,2,4]triazin-7-yl]-N-[(3R,4S)-4-fluoro-1-(2-hydroxy-2-methylpropanoyl)pyrrolidin-3-yl]-2-methoxy-pyridine-3-carboxamide, TFA], the IC50 worked out at 0.09 µM.
In the case of `COc1cc(F)c(-c2cc(C(F)(F)F)c3c(N)ncnn23)cc1C(=O)N[C@@H]1CN(C(=O)C2CC2(F)F)C[C@@H]1F` (stereo partly drawn) [Example 869, 5-[4-amino-5-(trifluoromethyl)pyrrolo[2,1-f][1,2,4]triazin-7-yl]-N-[(3R,4S)-1-(2,2-difluorocyclopropanecarbonyl)-4-fluoropyrrolidin-3-yl]-4-fluoro-2-methoxybenzamide], the IC50 is 0.0056 µM.
